Measured values: a collection of fitness landscapes (doi:10.1126/science.1257360)
Some of the results follow.

B1: PhoQ; a variant is named by its letters at X, in order, P23837 (parent)
chain: MKKLLRLFFPLSLRVRFLLATAAVVLVLSLAYGMVALIGYSVSFDKTTFRLLRGESNLFYTLAKWENNKLHVELPENIDKQSPTMTLIYDENGQLLWAQRDVPWLMKMIQPDWLKSNGFHEIEADVNDTSLLLSGDHSIQQQLQEVREDDDDAEMTHSVAVNVYPATSRMPKLTIVVVDTIPVELKSSYMVWSWFIYVLSANLLLVIPLLWVAAWWSLRPIEALAKEVRELEEHNRELLNPATTRELTSLVRNLNRLLKSERERYDKYRTTLTDLTHSLKTPLXXLQXXLRSLRSEKMSVSDAEPVMLEQISRISQQIGYYLHRASMRGGTLLSRELHPVAPLLDNLTSALNKVYQRKGVNISLDISPEISFVGEQNDFVEVMGNVLDNACKYCLEFVEISARQTDEHLYIVVEDDGPGIPLSKREVIFDRGQRVDTLRPGQGVGLAVAREITEQYEGKIVAGESMLGGARMEVIFGRQHSAPKDE

Variants of: B1
Experiment: enrichment ratio after two sorts for PhoP signalling (ratio (wild type AVST 3.29)); higher = more functional
Conditions: with PhoP (E. coli)

| Variant | enrichment ratio |
| --- | --- |
| AWIQ | ≤ 0.25 |
| ESWN | ≤ 0.25 |
| MQGY | ≤ 0.25 |
| NSRF | ≤ 0.25 |
| TWIM | ≤ 0.25 |
| NPKF | ≤ 0.25 |
| IAKL | ≤ 0.25 |
| EEET | ≤ 0.25 |
| QALN | 1.6 |
| RIHH | ≤ 0.25 |
| QTYH | ≤ 0.25 |
| DMEN | ≤ 0.25 |
| FHQF | ≤ 0.25 |
| LYDR | ≤ 0.25 |
| VDHE | ≤ 0.25 |
| WRQG | ≤ 0.25 |
| WPEF | ≤ 0.25 |
| FQRA | ≤ 0.25 |
| VVFG | ≤ 0.25 |
| KYGS | ≤ 0.25 |
| SMGC | 0.959 |
| PDLE | ≤ 0.25 |
| KSQS | ≤ 0.25 |
| SEFN | 4.06 |
| LCIR | ≤ 0.25 |
| KAAT | ≤ 0.25 |

| Variant | enrichment ratio |
| --- | --- |
| VKEA | ≤ 0.25 |
| WCAK | ≤ 0.25 |
| EGWF | ≤ 0.25 |
| IYFQ | ≤ 0.25 |
| NWWD | ≤ 0.25 |
| QKNA | ≤ 0.25 |
| IERD | ≤ 0.25 |
| FCLH | 2.83 |
| SPQN | ≤ 0.25 |
| AWTR | ≤ 0.25 |
| DSSM | ≤ 0.25 |
| IFSW | ≤ 0.25 |
| SCCV | 8.64 |
| NVTD | ≤ 0.25 |
| IDHP | ≤ 0.25 |
| LMWI | ≤ 0.25 |
| CLGF | ≤ 0.25 |
| VAQK | ≤ 0.25 |
| GWEP | ≤ 0.25 |
| TALE | ≤ 0.25 |
| YAMK | ≤ 0.25 |
| TWLC | ≤ 0.25 |
| RTQH | ≤ 0.25 |
| ETRR | ≤ 0.25 |
| QEFN | 3.01 |
| PNWS | ≤ 0.25 |

| Variant | enrichment ratio |
| --- | --- |
| ETIH | ≤ 0.25 |
| SCDT | ≤ 0.25 |
| AGSS | 11.2 |
| TVAP | ≤ 0.25 |
| MCYC | ≤ 0.25 |
| PPKV | ≤ 0.25 |
| WDGP | ≤ 0.25 |
| YIKN | ≤ 0.25 |
| RFGH | ≤ 0.25 |
| EALW | ≤ 0.25 |
| WMAC | ≤ 0.25 |
| TAFP | 0.47 |
| GCSW | ≤ 0.25 |
| ACEL | ≤ 0.25 |
| FLIR | ≤ 0.25 |
| KGMR | ≤ 0.25 |
| TFQK | ≤ 0.25 |
| KVML | ≤ 0.25 |
| TAWL | 6.96 |
| VKSQ | ≤ 0.25 |
| DILV | ≤ 0.25 |
| KSFT | ≤ 0.25 |
| LGVD | ≤ 0.25 |
| DRIQ | ≤ 0.25 |
